Measurements reported in the supplement of paper PMC3334620.
In all, about 33,000 sequences were measured (“E-score (-0.5 to 0.5)”: median about -0.016, highest 2% from about 0.31 on). This is one part of the list.

Molecular target: Cst6 (UniProt P40535)
Experiment: PBM E-score (8-mer binding enrichment) (E-score (-0.5 to 0.5)); higher = stronger / more preferred TF binding; most listed sequences are background and not binding sites
Details: protein concentration: 200 nM; construct: GST-DNA-binding domain
Summary of the method: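 Using PURExpress in vitro transcription/translation, GST-tagged yeast transcription factors were made in full-length or DNA-binding-domain form. These were applied at about 100-200 nM to double-stranded universal all-10-mer Agilent arrays, and bound protein was detected with fluorescent anti-GST. Scans were normalised with masliner before the Universal PBM Analysis Suite assigned E-scores to ungapped eight-base words pooled with their reverse complements.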

Sequence	PBM E-score
CATTATCG	0.0831
ATCGGTCA	-0.0288
GACGGTTA	-0.058
GAATAATA	0.244
ACAAGGAT	0.0852
CTACGTAC	0.00059
ACGGAACC	0.117
CTGGTGAA	-0.15
TCATTCAA	0.217
GGAGTGAA	-0.0454
GTGTCGGA	-0.138
TAGAAGCA	0.137
AGGTGTTG	0.0355
ACCGCACC	0.0061
AACCATAA	0.13
AGCACCGC	-0.284
AGCTGAAG	-0.136
CGAACCTC	0.0197
AACGGTGC	0.0805
ACTGGGCC	-0.233
CCCAAACC	-0.143
CAATAATA	0.283
AAGTGGAA	-0.0325
CAGCCTTA	-0.254
ATTTAAAA	0.258

Sequence	PBM E-score
GTCAAGAA	0.2
ATTGTGAC	0.244
GGGACCTA	-0.149
CGCACACG	-0.0109
AGAGTCTA	-0.109
CCCGGCAC	-0.318
CCCAAGTA	-0.229
CTAGCAGA	-0.0311
AATCAAGG	-0.00856
CTGAGGGA	-0.12
GCAGTTTA	0.00275
GTACGCAA	0.0898
AGGAGGTG	-0.141
ACAAGCTG	-0.00948
CGAGATCC	-0.0304
CACCTAAA	-0.0665
AAGCAGTA	-0.152
CATGGTCA	0.225
GCGTAGCC	-0.276
ATCGAGAA	0.0467
AGAAAGGG	0.0377
GGCTAATA	0.0847
CAAGCGCG	-0.0487
GTCTTCTA	0.0601
CGCTTTGC	0.0492

Sequence	PBM E-score
AGGCGCAT	0.0355
AGTCACGG	0.0365
CTAATTCC	-0.0103
CACACGCC	-0.0267
ACCATGCA	-0.0485
CAATCATG	0.179
GATTCGCA	-0.0144
CAATCATC	0.152
GCGAGACA	-0.17
AGTTCTGG	-0.0687
ACCGCCAT	-0.0159
AAGCCCAC	-0.177
CTTCGCCA	-0.106
ACGTCCCG	-0.179
GATTACCC	0.0267
GATAGGCC	-0.294
CAAAATCG	0.0996
GACCCGAA	-0.206
CCTAAGGC	-0.109
CTGGCAGC	-0.208
ACGCGTCC	-0.129
AGCATTTA	-0.0114
AGACTTGC	-0.243
CGGATCCC	-0.314
ACAATGGC	-0.0317

Sequence	PBM E-score
GTACTGAA	0.171
CTGGCCGA	-0.244
TCGTTAGA	-0.194
CTGTTGGC	-0.263
ATGCGGAG	-0.204
AGTTCTAT	-0.0843
ACAACATG	0.152
ACGAGTGA	0.01
ACACCTAT	0.0251
TGTTAGAA	0.061
GTAACTTA	0.214
GGTTTCAC	0.051
GGCTGGGA	-0.208
GCCTCTCA	-0.231
CATCCCGA	-0.083
GTATAAAA	0.254
CCCAGGCA	-0.318
AGACGTAC	-0.0375
AACCTCTC	-0.228
AACGGCCG	0.065
CGATACTC	-0.0389
CCGTGAGG	-0.0986
CACGCAAC	0.264
AACACCTA	-0.0667
ACGGTCAC	0.152

Sequence	PBM E-score
CCCATGCC	-0.205
CAGCAGCC	-0.128
CGTACCAC	0.0284
GCTACCCC	-0.34
CAGAAGGG	-0.191
GACACACA	0.146
ATCCGCCC	-0.317
ACGCCACG	0.0785
CCGCCAGA	-0.078
CGCGCGAC	0.0579
TCCGAACA	-0.0581
AAAGGGGA	-0.291
ACACTGTG	0.0104
ACACGCAC	-0.0949
AGTGACCA	-0.105
GGCGCGAA	0.107
GTGAACAC	0.00153
ATATATTA	0.336
TCTTAGCA	-0.0175
AGTAAGTG	0.0876
ACGAATCG	0.148
CGGTTGCA	-0.0979
CGGAGCCG	0.077
GATACAGA	0.0801
AGCGAACG	-0.215

Sequence	PBM E-score
ATTTCGCC	0.125
CGTTTCTA	0.0884
ATCATGAG	0.146
GATACCTA	0.0533
AGCTACAC	-0.0312
CGGCTGAC	-0.0468
CTTCTCGC	-0.00321
TACTAGCA	-0.0555
AGTGTTTG	0.0763
TCCAGTAA	-0.259
CCCACGAA	-0.129
CTTAGGAC	-0.103
CGCCGTGC	0.344
ACATTTAG	-0.0508
TCGATCGA	0.135
AATCCTGG	-0.113
GCTCGCGA	-0.109
GATAGGTA	-0.00617
AAACCCTT	-0.0827
GATATCTA	0.0454
CATCGCCA	0.0609
ACGATGTC	0.0231
AGCGTTAT	-0.0472
CCAAGATA	-0.0457
AACTGGCC	-0.148

Sequence	PBM E-score
CATGCCAG	-0.0651
GTTCTCTA	0.0871
CGCTTAGA	-0.248
GAAGGTGC	-0.268
CACGCCTG	-0.102
AAGTACCG	-0.0946
CTGAACGA	0.00235
ATGCCGTA	0.372
CGCATTGC	0.16
CGGATCAC	0.16
GCCTTACA	0.0413
AGACAGCC	-0.3
TATACGGA	0.00453
CCCTTTAA	-0.0558
AAGTTCTC	-0.0938
AGTAAGCG	-0.0624
CCACCGTC	-0.201
TATGCTAA	0.0861
CCATCCGC	0.0484
AAGTTTGT	0.0881
AACCGATC	-0.0645
GTCACATA	0.245
CATCTCAC	0.0124
CTCTCTCA	-0.111
CACACACC	0.00235

Sequence	PBM E-score
CTCCGGCC	-0.298
AAGGATTG	0.0586
ACATCGTG	0.0167
AGCACCAA	-0.0932
AAGGGAAT	0.112
ACTGACAC	-0.121
ATTCCACC	0.0657
GAGCCGAA	-0.00213
CCTCAAGG	-0.153
TGGCGTAA	0.294
CAAGGCAG	-0.119
AGGCGTGA	0.0189
ATGCAGGC	-0.123
CGATCCAC	-0.131
AAAGAGGC	-0.169
TACAGCCA	-0.0845
TTCCACAA	0.0661
CGTAATAA	0.325
ACGAGGAC	-0.177
CGCACTAA	-0.0243
CGTATCGC	-0.00089
ATCGAAGA	0.116
GCCCCCAC	-0.394
CTCCTCTC	-0.371
CACGCGTG	-0.00323

Sequence	PBM E-score
CCGATCAG	-0.0851
TACCCAGA	-0.12
CGTAGTTA	0.138
ATCGGGAA	-0.0762
CCCCGTTC	-0.0982
AACCGTAC	-0.141
ACGTTAAT	0.171
CACCGAAC	0.00131
GTAATCAC	0.225
AGCGCACA	-0.185
GATAAGCC	-0.329
CCGCTCCA	-0.152
ACCCACCG	-0.0181
GACCGGTC	-0.234
GTATGTAA	0.282
GACCTTCC	-0.294
CACAATTA	0.211
ACACGGAC	-0.00107
CCCGTAAA	0.0203
AGGCTCCA	-0.199
CATATTAG	0.189
ACATGGGA	-0.0499
GGCTTGTA	-0.121
ATTCCTGG	-0.0933
GCGGCCAA	0.0174

Sequence	PBM E-score
GAAGGGGA	-0.187
ATTACTAG	-0.0138
AAAAGGAT	0.07
GACGTCAC	0.495
ACCATAAC	0.0929
CCTCTGTC	-0.184
CACGTAAA	0.181
ACTTACAT	0.149
AGAAACAC	0.0274
CCCGCTAC	-0.101
AGATAGGA	-0.101
ACATCGAA	0.182
AGGAGTAG	0.0204
CAACAAGA	0.113
AGGACCAA	-0.0819
AACTCCAA	0.0552
CATAAAAG	0.145
CCACCTAC	0.0546
AGCGTGCC	-0.00767
ACTGGCTA	-0.108
CTCAGTAC	-0.0935
GAGTTCCA	-0.103
CGCCCCAA	0.0361
GCTGTCCC	-0.22
CGTTTCTC	-0.239

Sequence	PBM E-score
GCAGGCAC	-0.267
ACGACCGT	-0.238
AGGATCGC	-0.00903
CGAGTACA	-0.0177
ACCAACAC	0.0173
CCGTCCAA	-0.116
AGCGTTTG	-0.0379
GGGCGGGA	-0.0359
CGGAGTGC	-0.0178
ACAGGGGT	-0.331
AGCAGCAA	-0.0674
CCAACCAC	-0.0582
AACTCACA	0.119
TCGGGCCA	-0.233
ACTCTTTG	0.00634
ACTACCCT	-0.111
ACCCTTAA	-0.207
AGCTGCAC	-0.144
GACTCCAC	-0.271
CTAAGAAA	0.109
GCTTCTAA	-0.0534
CGCAACAA	0.135
CCCTTAAA	-0.111
ATTTCCAG	0.0306
CCCATATC	0.0133

Sequence	PBM E-score
CGAACGCA	0.261
GCGCCTCA	0.0635
ATCGCGGC	0.0883
CCATGCAG	-0.0955
ACATTTCT	0.0719
AGGGCAAC	-0.0629
CACTCAAG	-0.115
AACCGGCA	-0.277
AAAACAAC	0.0133
CAGGTTGA	-0.0445
CCTCCATC	-0.327
CACATAGG	-0.00938
AAAATAAG	0.139
ATTGCTTC	-0.043
AATCCATC	-0.0415
CTGTAGCA	-0.168
GCTTAGAA	-0.11
TCGTTACA	0.0818
GGTAGGGA	-0.0499
AAGGCCGG	-0.235
CAAAGTTA	0.2
CTGGTTAC	-0.116
ATCTTAAT	0.104
CAAGCGAA	0.0719
ATTTGGGG	0.0052

Sequence	PBM E-score
TCGGCCCA	-0.153
GGCTCGGA	-0.348
GAGGCGAC	-0.0705
AGCAACTA	0.093
CCTTAGTC	-0.25
CGCCGTCA	0.291
ACCCTTCT	-0.147
TCCGCTAA	-0.0697
CGCTGTAC	-0.158
ACATGGGC	-0.0483
CACGGAAG	-0.147
GAGCGCGA	0.0429
AACGTAGC	0.0195
ATGACTTA	0.259
GCTGCTCC	-0.288
CTGTAGAC	0.0583
ATACTCGA	-0.0849
CGCGCGCG	0.123
TCGCTGCA	-0.0796
CTGGATTA	0.066
TTACACAA	0.302
ACCAACTA	0.111
TCCGGAGA	-0.251
CATCATCG	0.333
CCACCTAG	-0.314

Sequence	PBM E-score
AAGACCGC	-0.18
GAGTGATC	0.0955
ATTTACGA	0.189
ATCTGACC	0.0204
TAGGCAGA	0.0434
GCTGGGCA	-0.177
AGGTCCTC	-0.201
AGCGTGAA	-0.132
AGGCCGGC	-0.216
CCCGTTAG	-0.281
ATATGAAT	0.15
ACCCCAGC	-0.12
ATTACGAA	0.305
CCCGACAG	-0.223
ACGCAAAC	0.235
CGGCATAG	0.0517
TATTTTAA	0.259
CCCATCAG	-0.295
ATACGTGA	0.19
